# Read-outs that look alike come from different tables or passages of the source.
# Legend:
# [1] = system: Staphylococcus aureus CCM 4516/08; test: Antibacterial microdilution broth MIC, S. aureus; format: cell-based; details: CCM4516, 24 h incubation, read-out: MIC SA 24 h
# [2] = system: Staphylococcus epidermidis H 6966/08; test: Antibacterial microdilution broth MIC, S. epidermidis; format: cell-based; details: Staphylococcus epidermidis, H6966/08; 24 h incubation; read-out: MIC SE 24 h
# [3] = system: Enterococcus faecalis J 14365/08; test: Antibacterial microdilution broth MIC, E. faecalis; format: cell-based; details: Enterococcus faecalis, J14365/08; 24 h incubation; read-out: MIC EF 24 h
# [4] = system: Escherichia coli CCM 4517; test: Antibacterial microdilution broth MIC, E. coli; format: cell-based; details: Escherichia coli, CCM4517; 24 h incubation; read-out: MIC EC 24 h
# [5] = system: Pseudomonas aeruginosa CCM 1961; test: Antibacterial microdilution broth MIC, P. aeruginosa; format: cell-based; details: Pseudomonas aeruginosa, CCM1961; 24 h incubation; read-out: MIC PA 24 h
# [6] = system: Candida tropicalis 156; test: Antifungal microdilution broth MIC, C. tropicalis; format: cell-based; details: 24 h incubation, read-out: MIC CT 24 h
# [7] = system: Candida krusei E28; test: Antifungal microdilution broth MIC, C. krusei; format: cell-based; details: Pichia kudriavzevii, 24 h incubation, read-out: MIC CK 24 h
# [8] = system: Aspergillus fumigatus 231; test: Antifungal microdilution broth MIC, A. fumigatus; format: cell-based; details: 24 h incubation, read-out: MIC AF 24 h
# [9] = system: Lichtheimia corymbifera 272; test: Antifungal microdilution broth MIC, L. corymbifera; format: cell-based; details: 24 h incubation, read-out: MIC LC 24 h
# [10] = Cytotoxicity, CellTiter 96 assay; format: cell-based, human; details: human, HepG2 cells, HepG2, 24 h incubation
# Description: The cytotoxicity of the investigated compounds 1 and 2 was measured using the standard hepatic cell line HepG2 (Table 5). The used CellTiter 96 assay is based on the reduction of tetrazolium dye in living cells to formazan. This reduction is related to availability of NADH or NADPH. The parameter IC50, i.e., the concentration that reduces the viability of the cells to 50% of the maximal viability, was used as a measure of cytotoxicity. It was not possible to determine the exact IC50 values of two derivatives (compounds 2a, 2b) due to their limited solubility in the cell culture medium used in this experiment.
# All of the compounds were tested to determine their cytotoxicity in the human hepatocellular liver carcinoma cell line HepG2 (passages 5–6 and 3–8; ECACC, Salisbury, UK) using a standard colorimetric method that involves measuring the reduction of a tetrazolium salt (CellTiter(R) 96 AQueous One Solution Cell Proliferation Assay; Promega, Fichtburg, MA, USA).
# The cells were cultured in Minimum Essentials Eagle Medium (Sigma-Aldrich) supplemented with 10% foetal bovine serum (PAA), 1% L-glutamine solution (Sigma-Aldrich) and a non-essential amino acid solution (Sigma-Aldrich) in a humidified atmosphere containing 5% CO2 at 37 °C. The investigated compounds were dissolved in DMSO and a small volume was added to the cell culture. The tested compounds were prepared in triplicates at concentrations ranging from 1 to 1500 µM. Simultaneously, the following types of controls were also included in triplicates: determination of 100% viability and 0% viability (the cells were treated with 10% DMSO), no cell control and vehiculum controls. […] After 2 h incubation at 37 °C, absorbance of samples was recorded at 490 nm (Infinita M200, TECAN, Grödig, Austria). A standard toxicological parameter IC50 was calculated by nonlinear regression from a semilogarithmic plot of incubation concentration versus percentage of absorbance relative to untreated controls using GraphPad Prism 6 software (GraphPad Software Inc., San Diego, CA, USA). IC50 is the inhibitory concentration that reduces the cell viability to 50% of the maximal (control) viability.
# [11] = system: methicillin-resistant Staphylococcus aureus H 5996/08 (MRSA); test: Antibacterial microdilution broth MIC, MRSA; details: MRSA; for MIC: Staphylococcus aureus; for SI for Staphylococci (MRSA): SI = IC50 (HepG2)/MIC
# [12] = system: Candida albicans ATCC 44859; test: Antifungal microdilution broth MIC, C. albicans; format: cell-based; details: ATCC44859, 24 h incubation, read-out: MIC CA 24 h
# [13] = system: Candida glabrata 20/I; test: Antifungal microdilution broth MIC, C. glabrata; format: cell-based; details: Nakaseomyces glabratus, 24 h incubation, read-out: MIC CG 24 h
# [14] = system: Trichosporon asahii 1188; test: Antifungal microdilution broth MIC, T. asahii; format: cell-based; details: 24 h incubation, read-out: MIC TA 24 h
smiles,measurement,setting,value
"O=S(=O)(Nc1ncccn1)c1ccc(N=Cc2cc(Br)ccc2O)cc1 [Compound 2d, 4-[(5-Bromo-2-hydroxybenzylidene)amino]-N-(pyrimidin-2-yl)benzenesulfonamide]",MIC,[1],500 µM
same,MIC,[2],250 µM
same,MIC,[3],> 500 µM
same,MIC,[4],500 µM
same,MIC,[5],500 µM
same,MIC,[6],250 µM
same,MIC,[7],250 µM
same,MIC,[8],250 µM
same,MIC,[9],> 500 µM
same,IC50 at 24 h,[10],159 µM
same,MIC,"[11]; 48 h, read-out: MIC MRSA 48 h",500 µM
"O=S(=O)(Nc1ncccn1)c1ccc(N=Cc2cc(I)ccc2O)cc1 [Compound 2e, 4-[(2-Hydroxy-5-iodobenzylidene)amino]-N-(pyrimidin-2-yl)benzenesulfonamide]",MIC,[1],250 µM
same,MIC,[3],250 µM
same,MIC,[4],250 µM
same,MIC,[5],500 µM
same,MIC,[8],250 µM
same,MIC,[9],> 500 µM
same,IC50 at 24 h,[10],156 µM
same,MIC,"[11]; 48 h, read-out: MIC MRSA 48 h",250 µM
"Cc1ccc(O)c(C=Nc2ccc(S(=O)(=O)Nc3ncccn3)cc2)c1 [Compound 2g, 4-[(2-Hydroxy-5-methylbenzylidene)amino]-N-(pyrimidin-2-yl)benzenesulfonamide]",MIC,[1],> 250 µM
same,MIC,[3],> 250 µM
same,MIC,[4],> 250 µM
same,MIC,[5],> 250 µM
same,MIC,[12],> 500 µM
same,MIC,[6],> 500 µM
same,MIC,[7],> 500 µM
same,MIC,[13],> 500 µM
same,MIC,[14],> 500 µM
same,MIC,[8],> 500 µM
same,MIC,[9],> 500 µM
same,IC50 at 24 h,[10],~570 µM
same,MIC,"[11]; 24 h, read-out: MIC MRSA 24 h",125 µM
same,MIC,"[11]; 48 h, read-out: MIC MRSA 48 h",125 µM
"COc1ccc(O)c(C=Nc2ccc(S(=O)(=O)Nc3ncccn3)cc2)c1 [Compound 2h, 4-[(2-Hydroxy-5-methoxybenzylidene)amino]-N-(pyrimidin-2-yl)benzenesulfonamide]",MIC,[1],500 µM
same,MIC,[3],> 500 µM
same,MIC,[4],> 500 µM
same,MIC,[5],500 µM
same,MIC,[12],500 µM
same,MIC,[6],500 µM
same,MIC,[7],> 500 µM
same,MIC,[13],500 µM
same,MIC,[14],500 µM
same,MIC,[8],> 500 µM
same,MIC,[9],> 500 µM
same,IC50 at 24 h,[10],351 µM
same,SI for Staphylococci (MRSA),[11],inactive
same,MIC,"[11]; 48 h, read-out: MIC MRSA 48 h",> 500 µM
"O=S(=O)(Nc1ncccn1)c1ccc(N=Cc2cc(O)ccc2O)cc1 [Compound 2i, 4-[(2,5-Dihydroxybenzylidene)amino]-N-(pyrimidin-2-yl)benzenesulfonamide]",MIC,[1],31.2 µM
same,MIC,[2],15.6 µM
same,MIC,[3],250 µM
same,MIC,[4],500 µM
same,MIC,[5],500 µM
same,MIC,[12],15.6 µM
same,MIC,[6],15.6 µM
same,MIC,[7],31.2 µM
same,MIC,[13],15.6 µM
same,MIC,[14],15.6 µM
same,MIC,[9],500 µM
same,IC50 at 24 h,[10],> 500 µM
same,MIC,"[11]; 48 h, read-out: MIC MRSA 48 h",31.2 µM
"O=S(=O)(Nc1ncccn1)c1ccc(N=Cc2cccc(Cl)c2O)cc1 [Compound 2l, 4-[(3-Chloro-2-hydroxybenzylidene)amino]-N-(pyrimidin-2-yl)benzenesulfonamide]",MIC,[1],> 500 µM
same,MIC,[2],> 500 µM
same,MIC,[3],> 500 µM
same,MIC,[4],> 500 µM
same,MIC,[5],> 500 µM
same,MIC,[7],250 µM
same,MIC,[8],250 µM
same,MIC,[9],> 500 µM
same,IC50 at 24 h,[10],160 µM
same,SI for Staphylococci (MRSA),[11],inactive
same,MIC,"[11]; 48 h, read-out: MIC MRSA 48 h",> 500 µM
"O=S(=O)(Nc1ncccn1)c1ccc(N=Cc2cc(Cl)cc(Cl)c2O)cc1 [Compound 2m, 4-[(3,5-Dichloro-2-hydroxybenzylidene)amino]-N-(pyrimidin-2-yl)benzenesulfonamide]",MIC,[2],31.2 µM
same,MIC,[3],> 500 µM
same,MIC,[4],> 500 µM
same,MIC,[5],> 500 µM
same,MIC,[13],31.2 µM
same,MIC,[8],250 µM
same,MIC,[9],500 µM
same,IC50 at 24 h,[10],114 µM
same,MIC,"[11]; 24 h, read-out: MIC MRSA 24 h",62.5 µM
same,MIC,"[11]; 48 h, read-out: MIC MRSA 48 h",62.5 µM
"O=S(=O)(Nc1ncccn1)c1ccc(N=Cc2cc(Cl)cc(Br)c2O)cc1 [Compound 2n, 4-[(3-Bromo-5-chloro-2-hydroxybenzylidene)amino]-N-(pyrimidin-2-yl)benzenesulfonamide]",MIC,[1],31.2 µM
same,MIC,[2],31.2 µM
same,MIC,[3],> 500 µM
same,MIC,[4],500 µM
same,MIC,[5],> 500 µM
same,MIC,[12],31.2 µM
same,MIC,[13],31.2 µM
same,MIC,[8],250 µM
same,MIC,[9],500 µM
same,IC50 at 24 h,[10],92.9 µM
same,MIC,"[11]; 48 h, read-out: MIC MRSA 48 h",15.6 µM
"O=S(=O)(Nc1ncccn1)c1ccc(N=Cc2cc(Cl)cc(I)c2O)cc1 [Compound 2o, 4-[(5-Chloro-2-hydroxy-3-iodobenzylidene)amino]-N-(pyrimidin-2-yl)benzenesulfonamide]",MIC,[1],15.6 µM
same,MIC,[2],31.2 µM
same,MIC,[3],250 µM
same,MIC,[4],250 µM
same,MIC,[5],500 µM
same,MIC,[12],7.81 µM
same,MIC,[6],7.81 µM
same,MIC,[7],7.81 µM
same,MIC,[13],7.81 µM
same,MIC,[14],7.81 µM
same,MIC,[9],250 µM
same,IC50 at 24 h,[10],59.2 µM
same,MIC,"[11]; 48 h, read-out: MIC MRSA 48 h",15.6 µM
"OC(Cn1cncn1)(Cn1cncn1)c1ccc(F)cc1F [FLU, fluconazole, reference compound]",MIC,[12],0.24 µM
same,MIC,[6],> 500 µM
same,MIC,[7],125 µM
same,MIC,[13],31.2 µM
same,MIC,[14],250 µM
same,MIC,[8],> 500 µM
same,MIC,[9],> 500 µM
"Nc1ccc(S(=O)(=O)Nc2ncccn2)cc1 [SDZ 1, sulfadiazine, reference compound]",MIC,[1],500 µM
same,MIC,[2],> 500 µM
same,MIC,[3],> 500 µM
same,MIC,[4],> 500 µM
same,MIC,[5],> 500 µM
same,MIC,"[11]; 24 h, read-out: MIC MRSA 24 h",500 µM
same,MIC,"[11]; 48 h, read-out: MIC MRSA 48 h",> 500 µM
